Source: PubChem BioAssay AID686978 (National Center for Advancing Translational Sciences (NCATS), 2013)
The whole screen tested about 420,000 compounds, of which about 64,000 (15%) were called active. This list was built around the results that the source calls inconclusive (neither active nor inactive); the mix of calls is not that of the screen. The call rests on the fitted dose curve; in most records, active means well fitted inhibition curve with a large enough effect; inconclusive means small, poorly fitted or top-dose-only effect; inactive means flat fitted curve, though single readings scatter. No potency is given beside an inconclusive call; the fits are too rough.

Assay: qHTS for Inhibitors of human tyrosyl-DNA phosphodiesterase 1 (TDP1): qHTS in cells in absence of CPT; further: nearly all actives have a fitted effect of over 55% in size
Conditions: DT40 Tdp1-/- hTDP1 cells, no CPT, ATP luminescence, 48 h; activity change, negative = growth inhibition: at 46.2 µM (top of the series) unless noted
Outline: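 Compound effects on proliferation are scored in DT40 Tdp1-/-;hTDP1 cells in the absence of CPT. ATP levels (CellTiter-Glo luminescence) are recorded after a ≥48 hr, 37 °C incubation.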
On the % scale 0 is the no-effect control and ±100 the full control effect; potency means the concentration at half of the fitted maximal effect; tags describe the fitted curve by direction and shape.

Compound	Potency	activity change, negative = growth inhibition
COc1ccc(C)cc1NC(=O)C1COc2ccccc2C1 (configuration not stated)	inconclusive [inhibitor, single point]	
CC[N+]1(C)CCC(O)(c2ccc(OC)cc2)C(C(=O)c2ccc(OC)cc2)C1 (configuration not stated)	active: 0.92 µM	
Cn1c(O)c(/C=C2\C=NN=C2c2ccccc2)sc1=S		inconclusive: -32.4% [inhibitor]
O=C(O)CCCC(=O)Nc1ccccc1Br	inactive	
COc1ccccc1-n1cc(CN2CCC3(CCC(CNC(=O)c4ccccc4)O3)CC2)cn1 (configuration not stated)	inactive	
Cc1ccc(S(=O)(=O)N2CCC(C(=O)O)CC2)cc1	inactive	
COc1ccc(NC(=O)C2(C)CCN2Cc2ccc(OC(F)(F)F)cc2)cc1OC (configuration not stated)	inconclusive [inhibitor, single point]	
COc1ccc(NC(=O)C2=CC(c3ccc4c(c3)OCO4)=NS(=O)(=O)N2C)cc1	inconclusive [inhibitor, single point]	
CCC(C)(C)NC(=O)C1CCN(S(=O)(=O)c2c(C)noc2/C=C/c2ccc(C)cc2)CC1	inconclusive [inhibitor, single point]	
Oc1ccc(/C=N/N=C/c2ccc(O)c(O)c2)cc1O	active: 18.4 µM	
COc1ccc(-c2ccc(/C=N/N3C(=O)C4C5C=CC(C6CC56)C4C3=O)o2)c([N+](=O)[O-])c1 (configuration not stated)	active: 23.1 µM	
COc1ccc(/C=C/C(=O)Nc2ccc3c(c2)CCC3)cc1OC	inconclusive [inhibitor, single point]	
CCCc1nn(-c2ccccc2)c2c1C(c1cccs1)C(C#N)=C(N)O2 (configuration not stated)	inactive	
Cc1cccc(NC(=O)c2nc[nH]c2C(=O)Nc2cc(Br)ccc2F)c1	active: 8.2 µM	
CC(=O)c1cccc(NC(=O)N2CCCC2C(=O)NCCC(C)C)c1 (configuration not stated)	inactive	
CCC(C)(C)NC(=O)C(C(C)C)N(CC1CCCO1)C(=O)CNS(=O)(=O)c1ccccc1 (configuration not stated)	inactive	
O=C(Nc1ccccc1F)C1CCCN1S(=O)(=O)c1cccc2nsnc12 (configuration not stated)	inactive	
CCOC(=O)C1=CC[C@H]2c3c(c4ccccc4n3C)C(=O)C1N2C	inactive	
CCc1c(C)nc2cc(C)[nH]n2c1=O	inconclusive [inhibitor, single point]	
COc1ccc(S(=O)(=O)NCC(c2ccc(N(C)C)cc2)N2CCCC2)cc1 (configuration not stated)	inconclusive [inhibitor, single point]	
COc1ccc(-c2noc(CC(=O)Nc3ccc(Br)cc3C)n2)cc1	inactive	
O=C(Nc1ccccc1)Nc1ncc(C(F)(F)F)cc1Cl	inconclusive [inhibitor, full curve, poor fit]	
c1ccc(-c2nnc3sc(-c4cc5ccccc5o4)nn23)cc1	inconclusive [inhibitor, single point]	
CCOC(=O)CN1C(=O)N[C@@H](c2cccc(C(F)(F)F)c2)[C@H](C(C)=O)[C@H]1C	inconclusive [inhibitor, single point]	

Compound	Potency	activity change, negative = growth inhibition
CCOC(=O)C1(C)CCN1C(=O)/C=C/c1ccccc1 (configuration not stated)	inactive	
Cc1cc(C(F)(F)F)n2[nH]c(=O)c(N=Nc3ccccc3)c2n1	inactive	
O=C(OC1C[C@@H]2CC3C[C@H](C1)N2CC3=O)c1c[nH]c2ccccc12 (some centres not stated)	active: 21.1 µM	
CCOc1ccccc1CNC(=O)C1CCN(c2nc3ccccc3o2)CC1	inconclusive [inhibitor, partial curve, poor fit]	
C/C(=C\C(=O)c1ccc(C)cc1)Nc1cccc(O)c1	inconclusive [inhibitor, single point]	
COc1ccc(-c2nnc(COc3ccc4ccccc4c3)o2)cc1OC	inconclusive [inhibitor, single point]	
CCc1cc2cc3c(cc2nc1SCC(=O)N1CCN(C(=O)c2ccco2)CC1)OCO3	inconclusive [inhibitor, single point]	
COCCN(C(=O)COC(=O)CCC1CCCCC1)c1c(N)n(Cc2ccccc2)c(=O)[nH]c1=O	inconclusive [inhibitor, single point]	
O=C(CCN1CCc2ccccc2C(O)(c2ccccc2)C1)c1ccc2c(c1)OCCO2 (configuration not stated)	active: 2.91 µM	
CC1(C)Cc2c(C#N)c(SCc3ccccc3)nc(N3CCOCC3)c2CO1	inconclusive [inhibitor, single point]	
Cc1ccc(NC(=O)Nc2nnc(N(C)C3CCCCC3)s2)c(Cl)c1	inconclusive [inhibitor, single point]	
Cc1cc(C)c(/C=C/c2onc(C)c2S(=O)(=O)N2CCC(C(=O)N(C)Cc3ccccc3)CC2)c(C)c1	inconclusive [inhibitor, single point]	
CC1=C(C(=O)OCc2ccccc2)C(c2ccccc2Cl)NC(=O)N1C (configuration not stated)	inconclusive [inhibitor, partial curve, poor fit]	
CC(=O)c1ccc(NC(=O)N[C@@H](CC(C)C)C(=O)O)cc1	inconclusive [inhibitor, single point]	
CC(=O)c1c(C)[nH]c(C(=O)OCC(=O)NCc2ccccc2)c1C	inconclusive [inhibitor, single point]	
CCCNC(=O)COc1ccc2c(=O)c(Oc3ccccc3F)coc2c1	inconclusive [inhibitor, single point]	
Cc1cccn2c(=O)c3cc(C(=O)NC4CCCC4)c(=N)n(CCCN4CCOCC4)c3nc12	inconclusive [inhibitor, partial curve]	
Cc1nc(NC(=O)CN2CCN(c3cccc(Cl)c3)CC2)sc1C(=O)N(C)C	inactive	
CN(C)c1ncc2ncc(=O)n(CCC#N)c2n1	inactive	
CCOC(=O)C1CCN(C2CC(=O)N(c3ccc(OCC)cc3)C2=O)CC1 (configuration not stated)	inactive	
CCOC(=O)C1CCN(S(=O)(=O)c2ccccc2[N+](=O)[O-])CC1	inactive	
Cc1ccc(C(C)C)c(OCC(=O)Nc2ccccc2N2CCN(C)CC2)c1	active: 14.6 µM	
COc1cccc(C(=O)NCCN2C(=O)S/C(=C/c3cccs3)C2=O)c1OC	inconclusive [inhibitor, single point]	
